The other results are listed elsewhere or left out.
The molecules below were run on S. aureus RN4220 (assay: growth inhibition call (relative growth <= 0.2)). Details: 50 µM.

Growth inhibition call, inactive:
C[C@H](CO)N1C[C@H](C)[C@@H](CN(C)Cc2ccc(Oc3ccccc3)cc2)Oc2cc(Br)ccc2S1(=O)=O
CCS(=O)(=O)Nc1ccc2c(c1)C(=O)N(C)[C@H]1CC[C@H](CC(=O)NCc3ccc(OC)cc3)O[C@@H]1CO2
CN1N=C2CCN(C(=O)[C@@H](COCc3ccccc3)NC(=O)C(C)(C)N)C[C@@]2(Cc2ccccc2)C1=O
Cc1cc(C)n(-c2nc(=O)cc(C)[nH]2)n1
COC(=O)CCC(C)C1CCC2C3C(O)CC4CC(O)CCC4(C)C3CC(O)C12C (stereo unspecified)
C[C@@H]1CCCCO[C@@H](CN(C)C(=O)Nc2ccc(C(F)(F)F)cc2)[C@H](C)CN([C@@H](C)CO)C(=O)c2cc(NS(=O)(=O)c3ccc(Cl)cc3)ccc2O1
C[C@H]1CN([C@@H](C)CO)C(=O)c2cc(NS(C)(=O)=O)ccc2O[C@H]1CN(C)S(=O)(=O)c1ccc(Cl)cc1
C=CC[C@H](CC(=O)NCCO)C(=O)NC[C@@H](OC(=O)[C@@H](CC=C)CC(=O)OC(C)(C)C)c1ccccc1
O=C(C[C@H]1C[C@@H]2c3cc(NC(=O)C4CCOCC4)ccc3O[C@@H]2[C@@H](CO)O1)NCc1ccc(Cl)cc1
CCc1oc(CC[C@@H](CO)NC(=O)NCCn2cc(C3(O)CCCCC3)nn2)c(C(=O)OC)c1C(=O)OC
C[C@@H]1CCCCO[C@@H](CN(C)C(=O)C2CCCCC2)[C@H](C)CN([C@@H](C)CO)C(=O)c2cc(NC(=O)c3ccncc3)ccc2O1

Reference: the antibiotic and cytotoxicity screens of Wong et al. (2023)
